{
  "source": "patent US10391098B2",
  "about": "“Antisense antibacterial compounds and methods” (priority 2014, dated 2019)",
  "key": {"[1]": {"tested_on": "multi-drug-resistant strain of A. baumannii (AYE)", "test": "Colony-forming units at 24 hours, PPMO alone or combined with antibiotic", "settings": "for effect of antibiotic on bacterial growth (CFUs): colistin 0.25 μg/ml, meropenem 0.5 μg/ml or tobramycin 2 μg/ml, alone or with control PPMO", "description": "(§1) Synergy Studies. […] Calculated values less than 1 indicated synergy.\nA cell-penetrating peptide-conjugated phosphorodiamidate morpholino oligomer (PPMO) targeted against the A. baumannii acpP gene was prepared and its efficacy was evaluated in vitro against a multi-drug-resistant strain of A. baumannii (AYE).\nThe acpP-targeted PPMO#7 (2 μM) was added to bacterial cultures either alone or in combination with colistin (0.25 μg/ml), meropenem (0.5 μg/ml), or tobramycin (2 μg/ml). PPMO scramble control (2 μM), colistin (0.25 μg/ml), meropenem (0.5 μg/ml), and tobramycin (2 μg/ml) were added to bacterial cultures separately or in various combinations. Colony-forming units (CFUs) were counted at 24 hours."}, "[2]": {"tested_on": "multi-drug-resistant strain of E. coli (A15070834 / AIS070834)", "test": "MIC of classic antibiotics with added PPMO (microdilution / checkerboard)", "settings": "for MIC: Escherichia coli", "description": "Minimal Inhibitory Concentration Assays.\nas §1\n(§2) To determine whether the combination of active PPMOs and traditional antibiotics were additive or synergistic in their effects, checkerboard MIC assays were performed. The multidrug resistant E. coli AIS070834 was incubated with increasing concentrations of ftsZ PPMO (PPMO#46) or scrambled (Scr) PPMO (Scr-1) and increasing concentrations of either colistin, meropenem or tobramycin."}, "[3]": {"tested_on": "multi-drug-resistant strain of E. coli (A15070834)", "test": "Colony-forming units (viable cells) at 24 hours, PPMO alone or combined with antibiotic", "description": "as §1\nA cell-penetrating peptide-conjugated phosphorodiamidate morpholino oligomer (PPMO) targeted against the E. coli acpP gene was prepared and its efficacy was evaluated in vitro against a multi-drug-resistant strain of E. coli (A15070834).\nThe acpP-targeted PPMO (1 μM) was added to bacterial cultures either alone or in combination with tobramycin (2 μg/ml). PPMO scramble control (1 μM), peptide control (1 μM), and tobramycin (2 μg/ml) were added to bacterial cultures separately or in various combinations. Colony-forming units (CFUs) were counted at 24 hours.\nas §2"}, "[4]": {"tested_on": "A. baumannii strains AYE and AB0057", "test": "Kinetic minimal bactericidal concentration (MBC) viability assay", "settings": "at 24 hours, both strains", "description": "Minimal Bactericidal Concentration Assays.\nAt 24 hours, the acpP-targeted PPMO (PPMO#7) was bactericidal and below the limit of detection at PPMO concentrations of >4 μM in both strains tested (FIGS. 10B-10C). A PPMO with a scrambled oligo sequence linked to the same peptide (Scr-(RXR)4) had no effect on any strain (FIG. 10A-10C)."}, "[5]": {"settings": "PPMO 2 μM + colistin 0.25 μg/ml, 24 hours"}},
  "note": "Read-outs that look alike come from different tables or passages of the source. {(RXR)4XB} = cell-penetrating peptide (R arginine, X 6-aminohexanoic acid, B beta-alanine), conjugated via its C-terminal beta-alanine linked through a pip-PDA moiety; {TEG} = triethylene glycol end group (as defined in the publication); {Acetyl} = acetyl cap",
  "data": [
    {"compound": "NC[C@H]1O[C@H](O[C@H]2[C@H](O)[C@@H](O[C@H]3O[C@H](CO)[C@@H](O)[C@H](N)[C@H]3O)[C@H](N)C[C@@H]2N)[C@H](N)C[C@@H]1O", "note": "[tobramycin, reference compound]", "values": [
      {"measurement": "effect of antibiotic on bacterial growth (CFUs)", "setting": "[1]; 24 hours", "value": "did not have this significant of an effect"},
      {"measurement": "MIC", "setting": "[2]; read-out: MIC of tobramycin", "value": 270, "unit": "µg/mL"},
      {"measurement": "effect on bacterial growth (CFUs)", "setting": "[3]; tobramycin 2 μg/ml, PPMO scramble control 1 μM, alone or in combination, 24 hours", "value": "no significant effect"}
    ]},
    {"compound": "PPMO#46: Table 3B: pryA PPMO GACTTAATCAA; 5' TEG, 3' (RXR)4XB; called ftsZ PPMO in Example 7 (all phosphorodiamidate morpholino (PMO), 5' {TEG}, 3' {(RXR)4XB}; further chemistry not given here)", "values": [
      {"measurement": "MIC of tobramycin in the presence of ftsZ PPMO", "setting": "[2]; 2 μM PPMO", "value": "almost an undetectable level"},
      {"measurement": "MIC of colistin in the presence of ftsZ PPMO", "setting": "[2]; 2 μM of ftsZ PPMO", "value": 0.05, "unit": "µg/mL"},
      {"measurement": "MIC of meropenem in the presence of ftsZ PPMO", "setting": "[2]; 4 μM ftsZ PPMO", "value": 2, "unit": "µg/mL"},
      {"measurement": "reduction in CFU/ml when ftsZ PPMO was combined with the antibiotic compared to either the PPMO or antibiotic alone", "setting": "[3]; all antibiotics tested, 24-h cultures", "value": "at least 4 logs"}
    ]},
    {"compound": "C[C@@H](O)[C@H]1C(=O)N2C(C(=O)O)=C(S[C@@H]3CN[C@H](C(=O)N(C)C)C3)[C@H](C)[C@H]12", "note": "[meropenem, reference compound]", "values": [
      {"measurement": "effect of antibiotic on bacterial growth (CFUs)", "setting": "[1]; 24 hours", "value": "did not have this significant of an effect"},
      {"measurement": "MIC", "setting": "[2]; read-out: MIC of meropenem", "value": 12, "unit": "µg/mL"}
    ]},
    {"compound": "PPMO#7: acpP PPMO ATATCGCTCAC; 5' TEG, 3' (RXR)4XB (all phosphorodiamidate morpholino (PMO), 5' {TEG}, 3' {(RXR)4XB}; further chemistry not given here)", "values": [
      {"measurement": "additional reduction of bacterial growth relative to acpP-targeted PPMO alone, in combination with colistin", "setting": "[1]; [5]", "value": "~3", "unit": "logs"},
      {"measurement": "bacterial growth (CFUs) in combination with colistin", "setting": "[1]; [5]", "value": "undetectable levels"},
      {"measurement": "additional reduction of bacterial growth relative to acpP-targeted PPMO alone, in combination with meropenem", "setting": "[1]; PPMO 2 μM + meropenem 0.5 μg/ml, 24 hours", "value": "~2", "unit": "logs"},
      {"measurement": "additional reduction of bacterial growth relative to acpP-targeted PPMO alone, in combination with tobramycin", "setting": "[1]; PPMO 2 μM + tobramycin 2 μg/ml, 24 hours", "value": "~1", "unit": "log"},
      {"measurement": "reduction in CFU/ml when PPMO was combined with the antibiotic compared to either the PPMO or antibiotic alone", "setting": "[1]; all antibiotics tested (colistin, meropenem, tobramycin)", "value": "at least 1 log"},
      {"measurement": "PPMO concentrations that were bactericidal and below the limit of detection", "setting": "[4]", "value": "> 4", "unit": "µM"}
    ]},
    {"compound": "PPMO#1: acpP PPMO CTTCGATAGTG; 5' (RXR)4XB, 3' acetyl (all phosphorodiamidate morpholino (PMO), 5' {(RXR)4XB}, 3' {Acetyl}; further chemistry not given here)", "values": [
      {"measurement": "effect of PPMO on MIC of colistin, meropenem and tobramycin", "setting": "[2]; FIGS. 12A-12F", "value": "significantly reduced the MIC"},
      {"measurement": "effect of increasing amounts of PPMO on MIC of tobramycin", "setting": "[2]; concentration-dependent, FIG. 2B-2C", "value": "significantly decreased"}
    ]},
    {"compound": "colistin [reference compound]", "values": [
      {"measurement": "effect of antibiotic on bacterial growth (CFUs)", "setting": "[1]; 24 hours", "value": "did not have this significant of an effect"},
      {"measurement": "MIC of colistin", "setting": "[2]; without ftsZ PPMO, FIG. 14A", "value": 0.5, "unit": "µg/mL"}
    ]},
    {"compound": "PPMO#2: acpP PPMO CTTCGATAGTG; 5' TEG, 3' (RXR)4XB (all phosphorodiamidate morpholino (PMO), 5' {TEG}, 3' {(RXR)4XB}; further chemistry not given here)", "values": [
      {"measurement": "reduction of bacterial growth (CFUs) relative to controls, in combination with tobramycin", "setting": "[3]; PPMO 1 μM + tobramycin 2 μg/ml, 24 hours", "value": "over 4 logs"},
      {"measurement": "reduction of bacterial growth (CFUs) relative to scramble PPMO and peptide controls", "setting": "[3]; PPMO 1 μM alone, 24 hours", "value": "about 1 log"}
    ]}
  ]
}
